B1: PhoQ; a variant is named by its letters at X, in order, P23837 (parent)
chain: MKKLLRLFFPLSLRVRFLLATAAVVLVLSLAYGMVALIGYSVSFDKTTFRLLRGESNLFYTLAKWENNKLHVELPENIDKQSPTMTLIYDENGQLLWAQRDVPWLMKMIQPDWLKSNGFHEIEADVNDTSLLLSGDHSIQQQLQEVREDDDDAEMTHSVAVNVYPATSRMPKLTIVVVDTIPVELKSSYMVWSWFIYVLSANLLLVIPLLWVAAWWSLRPIEALAKEVRELEEHNRELLNPATTRELTSLVRNLNRLLKSERERYDKYRTTLTDLTHSLKTPLXXLQXXLRSLRSEKMSVSDAEPVMLEQISRISQQIGYYLHRASMRGGTLLSRELHPVAPLLDNLTSALNKVYQRKGVNISLDISPEISFVGEQNDFVEVMGNVLDNACKYCLEFVEISARQTDEHLYIVVEDDGPGIPLSKREVIFDRGQRVDTLRPGQGVGLAVAREITEQYEGKIVAGESMLGGARMEVIFGRQHSAPKDE

This is one part of the list. Some results are limits rather than exact numbers.

Variants of B1 are the subject of this assay. Description: enrichment ratio after two sorts for PhoP signalling (ratio (wild type AVST 3.29)); higher = more functional. The conditions noted are these: with PhoP (E. coli).
In the case of QPFF, the enrichment ratio was ≤ 0.25.

As for IVCH, the enrichment ratio is ≤ 0.25.

For the variant WWFM, the enrichment ratio was ≤ 0.25.

With MHFF, the enrichment ratio was ≤ 0.25.

Turning to CYCF, the enrichment ratio was ≤ 0.25.

In the case of SWHR, the enrichment ratio is ≤ 0.25.

Turning to LILA, the enrichment ratio was ≤ 0.25.

GRIA: the enrichment ratio is ≤ 0.25.

IEDP: the enrichment ratio was ≤ 0.25.

Consider FDIP, for which the enrichment ratio is ≤ 0.25.

As for ILDN, the enrichment ratio was ≤ 0.25.

Turning to TKQH, the enrichment ratio is ≤ 0.25.

Turning to EAAP, the enrichment ratio is ≤ 0.25.

For WRLF, the enrichment ratio was ≤ 0.25.

WDYE: the enrichment ratio was ≤ 0.25.

As for YFCA, the enrichment ratio is ≤ 0.25.

As to MWLR, the enrichment ratio is ≤ 0.25.

VKWS: the enrichment ratio is ≤ 0.25.

Take NHTC: the enrichment ratio was ≤ 0.25.

With ITQN, the enrichment ratio is ≤ 0.25.

For KFCI, the enrichment ratio is ≤ 0.25.

KPDS: the enrichment ratio is ≤ 0.25.

As for RRPN, the enrichment ratio is ≤ 0.25.

Turning to YDAS, the enrichment ratio was ≤ 0.25.

GQQD: the enrichment ratio was ≤ 0.25.

Turning to KLER, the enrichment ratio is 0.976.

In the case of FWKA, the enrichment ratio was ≤ 0.25.

Turning to FQMF, the enrichment ratio is ≤ 0.25.

For the variant MKFL, the enrichment ratio is 0.755.

Turning to MKSW, the enrichment ratio was ≤ 0.25.

In the case of NKAI, the enrichment ratio was ≤ 0.25.

Take HIIR: the enrichment ratio was ≤ 0.25.

NKHS: the enrichment ratio was ≤ 0.25.

For KAVK, the enrichment ratio is ≤ 0.25.

For the variant HMVM, the enrichment ratio was ≤ 0.25.

With DSGK, the enrichment ratio is ≤ 0.25.

In the case of DQWY, the enrichment ratio was ≤ 0.25.

As for LWRT, the enrichment ratio was ≤ 0.25.

As to DGLW, the enrichment ratio stood at 2.73.

With YTRD, the enrichment ratio was ≤ 0.25.

With VAIF, the enrichment ratio was ≤ 0.25.

Consider RHVC, for which the enrichment ratio was ≤ 0.25.

Take RTKY: the enrichment ratio is ≤ 0.25.

For the variant VTLQ, the enrichment ratio was 11.3.

SFSY: the enrichment ratio was ≤ 0.25.

PFHK: the enrichment ratio is ≤ 0.25.

As for HFHL, the enrichment ratio was ≤ 0.25.

For the variant IARV, the enrichment ratio was ≤ 0.25.

As to SAWF, the enrichment ratio was ≤ 0.25.

For the variant NSDN, the enrichment ratio is ≤ 0.25.

FHLM: the enrichment ratio was ≤ 0.25.

For the variant WKDY, the enrichment ratio was ≤ 0.25.

As to KRWL, the enrichment ratio is ≤ 0.25.

For EAYV, the enrichment ratio is ≤ 0.25.

Take EMDT: the enrichment ratio was ≤ 0.25.

IWLA: the enrichment ratio was ≤ 0.25.

AHYL: the enrichment ratio is ≤ 0.25.

As for TRHW, the enrichment ratio was ≤ 0.25.

NVTM: the enrichment ratio was ≤ 0.25.

Turning to GEEY, the enrichment ratio was ≤ 0.25.

Consider RMRN, for which the enrichment ratio was ≤ 0.25.

For YAMR, the enrichment ratio was ≤ 0.25.

Consider SEIK, for which the enrichment ratio was found to be 0.781.

Take VCRQ: the enrichment ratio was ≤ 0.25.

In the case of FDTW, the enrichment ratio was ≤ 0.25.

For the variant SHFM, the enrichment ratio is ≤ 0.25.

For the variant EPLF, the enrichment ratio is ≤ 0.25.

On to VKKS, for which the enrichment ratio is ≤ 0.25.

In the case of VNQE, the enrichment ratio was ≤ 0.25.

As to NPVM, the enrichment ratio was ≤ 0.25.

As for SLPH, the enrichment ratio is ≤ 0.25.

For the variant GRNH, the enrichment ratio is ≤ 0.25.

With DSLV, the enrichment ratio was ≤ 0.25.

For FDWM, the enrichment ratio is ≤ 0.25.

In the case of AFQH, the enrichment ratio was ≤ 0.25.

Take VLPM: the enrichment ratio was ≤ 0.25.

In the case of TNDN, the enrichment ratio is ≤ 0.25.

Regarding DSYP, the enrichment ratio was ≤ 0.25.

In the case of RFVH, the enrichment ratio was ≤ 0.25.

YGMP: the enrichment ratio was ≤ 0.25.

Consider YTQF, for which the enrichment ratio is ≤ 0.25.

For the variant LGGS, the enrichment ratio was ≤ 0.25.

Turning to YFIS, the enrichment ratio was ≤ 0.25.

In the case of DWFS, the enrichment ratio is ≤ 0.25.

For WPLM, the enrichment ratio is ≤ 0.25.

On to NHWW, for which the enrichment ratio was ≤ 0.25.

With IHIP, the enrichment ratio is ≤ 0.25.

As for RKIW, the enrichment ratio was ≤ 0.25.

For the variant LEGV, the enrichment ratio was ≤ 0.25.

In the case of HDSD, the enrichment ratio was ≤ 0.25.

For the variant KTRI, the enrichment ratio is ≤ 0.25.

Regarding MGHQ, the enrichment ratio is ≤ 0.25.

As for LHRK, the enrichment ratio is ≤ 0.25.

IDSK: the enrichment ratio is ≤ 0.25.

For DRCN, the enrichment ratio was ≤ 0.25.

Take GVPK: the enrichment ratio was ≤ 0.25.

For YHFP, the enrichment ratio is ≤ 0.25.

Regarding RFDY, the enrichment ratio was ≤ 0.25.

For WGPH, the enrichment ratio is ≤ 0.25.

In the case of MLPK, the enrichment ratio was ≤ 0.25.

Turning to QGCH, the enrichment ratio is ≤ 0.25.

Take KLDF: the enrichment ratio was ≤ 0.25.

On to AHSI, for which the enrichment ratio is ≤ 0.25.

Consider FLRS, for which the enrichment ratio was ≤ 0.25.

In the case of WMTS, the enrichment ratio was ≤ 0.25.

As to SRTL, the enrichment ratio was found to be 0.897.

As to QERC, the enrichment ratio is ≤ 0.25.

With IDFW, the enrichment ratio was ≤ 0.25.

For FVYT, the enrichment ratio is ≤ 0.25.

Consider FHTD, for which the enrichment ratio was ≤ 0.25.

Turning to MSDS, the enrichment ratio is ≤ 0.25.

For PHHI, the enrichment ratio is ≤ 0.25.

In the case of NMNT, the enrichment ratio is ≤ 0.25.

For the variant YAML, the enrichment ratio is 8.51.

As for VKWD, the enrichment ratio is ≤ 0.25.

Take LWIC: the enrichment ratio is ≤ 0.25.

For the variant PDKE, the enrichment ratio was ≤ 0.25.

On to GTKH, for which the enrichment ratio was ≤ 0.25.

For the variant TLTV, the enrichment ratio came to 8.62.

Consider SGRC, for which the enrichment ratio is ≤ 0.25.

Consider TNHI, for which the enrichment ratio was ≤ 0.25.

For VSIS, the enrichment ratio is ≤ 0.25.

Regarding RICK, the enrichment ratio was ≤ 0.25.

QYHL: the enrichment ratio was ≤ 0.25.

As to FRFQ, the enrichment ratio is ≤ 0.25.

PTYE: the enrichment ratio was ≤ 0.25.

YKVR: the enrichment ratio was ≤ 0.25.

Take SCKN: the enrichment ratio was ≤ 0.25.

For WELI, the enrichment ratio was determined as 2.12.

As to DVIM, the enrichment ratio is ≤ 0.25.

As to YYNI, the enrichment ratio is ≤ 0.25.

As to GDPC, the enrichment ratio is ≤ 0.25.

As for MRKV, the enrichment ratio is ≤ 0.25.

Regarding SDVP, the enrichment ratio is ≤ 0.25.

On to KEGP, for which the enrichment ratio was ≤ 0.25.

In the case of MRNA, the enrichment ratio is ≤ 0.25.

In the case of LVAA, the enrichment ratio is ≤ 0.25.

Take GHSS: the enrichment ratio is ≤ 0.25.

MMII: the enrichment ratio is ≤ 0.25.

ADTP: the enrichment ratio was ≤ 0.25.

In the case of ICMK, the enrichment ratio was ≤ 0.25.

As for MIVC, the enrichment ratio is ≤ 0.25.

Take DWNM: the enrichment ratio is ≤ 0.25.

As to WDLR, the enrichment ratio is ≤ 0.25.

Take ENKF: the enrichment ratio was ≤ 0.25.

For the variant HETW, the enrichment ratio was ≤ 0.25.

With ICWT, the enrichment ratio was ≤ 0.25.

Turning to IDCH, the enrichment ratio is ≤ 0.25.

Regarding DSAE, the enrichment ratio is ≤ 0.25.

In the case of AQMG, the enrichment ratio is 8.69.

With TRAD, the enrichment ratio is ≤ 0.25.

FHMD: the enrichment ratio is ≤ 0.25.

Consider KGGG, for which the enrichment ratio was ≤ 0.25.

The record behind these values is a collection of fitness landscapes (doi:10.1126/science.1257360).
